Measured values taken from ChEMBL document CHEMBL4888484, “Replenishing the malaria drug discovery pipeline: Screening and hit evaluation of the MMV Hit Generation Library 1 (HGL1) against asexual blood stage Plasmodium falciparum ,using a nano luciferase reporter read-out” (2022).
Screen size: about 150,000 compounds; about 540 (0.36%) showed an effect of 50% or more. Some of the results follow.

System: Plasmodium falciparum
Assay: Primary screen in NF54 nanoGlo assay, in single point, at 2uM, 72h; a lower Z score goes with more inhibition
Type: functional, Erythrocyte
Conditions: timepoint 72 hour

SMILES	% Inhibition [%]	Z score
COc1ccccc1CC(=O)NCCS(=O)(=O)CCNC(=O)Cc1ccccc1OC	0	-0.01
CCN(C)c1nc(N2CCN(c3ccccc3)CC2)nc2c1CN(C(=O)Cc1ccc(OC)cc1)CC2	6	-1.07
Cc1cnc(N2CCC[C@H]2c2nc(C(=O)O)cs2)nc1	-12	2.12
CCOC(=O)c1ccc(C(F)(F)F)[nH]1	-9	1.06
Cc1nc(C(=O)N2CCOCC2)c2n1CCN(S(=O)(=O)c1ccccc1)CC2	-3	0.44
Nc1cc(-c2cc(F)cc3cccnc23)nc(N2CCCC2)n1	-1	0.17
N#Cc1c(F)cccc1N1CC(CF)C1	-12	1.49
C[C@H](Nc1cccc(C(=O)NC2CC2)c1)C(=O)NC1CCCC1	2	-0.4
CCn1nc(-c2ccc(OC)cc2F)cc1C(=O)NCCN1CCCCC1	-17	2.1
COc1ccc(C(=O)CC(=O)Nc2cc(C(=O)O)cc(C(F)(F)F)c2)cc1	-8	1.13
Cc1noc(C)c1CN1C(=O)NC2(CCCCC2)C1=O	-2	0.32
Cc1scc(C(=O)N2C[C@@H](C)N(CCO)[C@@H](C)C2)c1C	-11	2.15
CC(C)N(Cc1cccc(Cl)c1)C(=O)C[C@@H]1CC[C@H](N)C1	-1	0.15
OCc1ccc(CN2CCCc3ccccc32)o1	-5	0.76
Cc1ccc(-c2ccc(=O)n(CCC(=O)NCCCN3CC(C)CC(C)C3)n2)cc1 (stereo not given)	-3	0.46
C[C@@H](NC(=O)[C@H](c1ccccc1)n1cnnn1)c1nnc2ccccn12	-1	0.07
COc1ccc(C(=O)Nc2ccccc2OC[C@H]2CCCCO2)c(OC)c1	-5	0.58
O=C(NCCN1CCOCC1)c1csc(CN2CCC(Cc3ccccc3)CC2)n1	-7	1.18
C[C@H](Oc1ccc(Cl)c(Cl)c1)C(=O)NCCCC(N)=O	-21	3.47
CN1CCC[C@H](CN(C)C(=O)Nc2ccc(-c3cc[nH]n3)cc2)C1	-5	0.92
Cc1nc(N)sc1-c1cc(-c2cccc(OC(F)F)c2)c(C#N)c(N)n1	-12	1.34
O=C(Cn1ncn2nccc2c1=O)N1CCC[C@@H]1COc1ccc(F)cc1	1	-0.09

SMILES	% Inhibition [%]	Z score
CS(=O)(=O)N1CCC(NC(=O)C2=Cc3ccccc3OC2)CC1	1	-0.1
Cn1cnc(-c2noc(C3C[C@@H]4C=C[C@H]3C4)n2)c1 (stereo not given in full)	-1	0.27
CCOc1ccccc1CCNC(=O)N1CCCC[C@H]1c1nnc2n1CCCC2	4	-0.47
O=C(c1nnc2n1CCCCC2)N1CC(Oc2ccccc2)C1	-5	1.03
N#Cc1c(NC(=O)CC2CCCC2)sc2c1CCCCC2	-6	1.11
CC1CCCCC1NC(=O)COc1ccc(-c2ccccc2)cc1 (stereo not given)	1	-0.14
COc1cc2c(cc1NC(=O)c1cc(-c3ccccc3)nc3ccccc13)oc1ccccc12	-6	0.76
NC(=O)c1sccc1S(N)(=O)=O	8	-1.01
C[C@H]1CCCCN1C(=O)c1csc(-c2cccs2)n1	-6	1.04
CNc1ncccc1C(=O)N1CCC[C@H](CC(N)=O)CC1	-22	3.15
CCOC(=O)c1[nH]c(CN(Cc2ccc(OC)cc2)S(=O)(=O)c2cc(C)cc(C)c2)c(C)c1C	5	-0.48
CCCCC(C)N[C@@H](CO)Cc1ccccc1 (stereo not given in full)	12	-1.91
Cc1cc(Oc2nc(N3CCN(C)CC3)nc3c2CN(C(=O)NCc2ccccc2)CC3)ccc1F	-11	1.47
NCC1CN(S(=O)(=O)CCc2c(F)cccc2F)CCC1C(F)(F)F (stereo not given)	-5	0.75
Cc1cnc(N2CC(Cc3ccco3)C2)nc1	-6	0.66
Cc1ncsc1-c1nnc(N2CCO[C@@H](CF)C2)n1CC(C)C	22	-2.77
COCCN(Cc1cc(Cl)ccc1OS(C)(=O)=O)C(=O)CC(C)(C)C	-3	0.47
CC[C@H](C)N(CC(=O)N(Cc1cccn1Cc1ccccc1Cl)CC(C)C)C(=O)c1ccc(Br)cc1	1	-0.09
Cc1ccc(C(=O)N2CCC(COc3ccc(C(=O)N4CCOCC4)cc3)CC2)c(C)c1	-8	1.56
COc1ccc(N2CCN(C(=O)[C@@H]3CCCN3C3=NS(=O)(=O)c4ccccc43)CC2)cc1	-31	3.68
c1ccc(Oc2ccnc(NCC34COCCN3CCOC4)n2)cc1	41	-4.86
CC(=O)N1CCC(NC(=O)c2cnn3ncccc23)CC1	-12	2.36

SMILES	% Inhibition [%]	Z score
N[C@H]1C[C@H](c2nnc(CNCc3ccc4c(c3)CCCC4)n2C2CC2)C1	-7	1.05
Cn1ncc2c(c(-c3ccccc3)nn2Cc2ccccc2)c1=O	1	-0.1
Cn1cc(C(NC(=O)Cc2ccc(F)c(Cl)c2F)[C@H]2C[C@H](O)C2)cn1 (stereo not given in full)	-9	0.97
CO[C@@H]1C[C@@H](CO)N(C(=O)COCC2CC2)C1	-12	1.46
Cn1nc(-c2ccccn2)cc1CNC(=O)NCc1cccs1	-11	1.26
C[C@H]1CS(=O)(=O)N(c2ccc(C(=O)NCc3ccccc3)c(Cl)c2)C1=O	5	-0.6
CN(Cc1cscn1)C(=O)c1cc2cc(C3(O)CCN(C4CCCCC4)CC3)ccc2o1	7	-0.94
NS(=O)(=O)c1ccc(CCNC(=O)C2(N3CCCC3)CCCCC2)cc1	7	-1.31
COc1ccc(-c2n[nH]c(C3CC3)c2NC(=O)CC(C)C)cc1OC	-13	1.23
O=C(NCCc1csc(-c2ccccc2)n1)[C@H]1CCCN1C(=O)c1ccccc1	-11	1.42
Cc1cc(C)c(NC(=O)c2ncn3c2C(=O)N(C2CC2)[C@](C)(C(=O)NCc2ccc(F)cc2)C3)c(C)c1	-7	1.17
CC(=O)Nc1c(C)ccc(NC(=O)NCCCn2ccccc2=O)c1C	-16	2.14
Cc1cc(S(=O)(=O)N[C@H]2COC[C@@H]2N2CCCC2)c(C)s1	-1	0.15
O=C1N[C@](O)(C(F)(F)F)C(=O)N1C1CCCCC1	-7	1.13
CCc1ccc(OCC(=O)c2ccc3c(c2)N(Cc2nc(C(=O)NCC4CC4)co2)C(=O)CO3)cc1	-12	1.56
CCCc1nc(C)c(CNC(=O)CC2CCN(C(C)C)CC2)s1	3	-0.67
CC(C)(C)c1nnc2c(C#N)c(N)[nH]n2c1=O	29	-3.71
Cc1cc(OC2CN(C(=O)Cc3noc4ccccc34)C2)cc(=O)n1C1CC1	-16	1.78
C[C@@H](c1cnn(C)c1)N(C)CC(=O)Nc1ccnn1C1CCCC1	-14	2.03
COC(=O)[C@@H]1C[C@H](O)CN1CC(C)c1ccc(F)cc1 (stereo not given in full)	-3	0.37
Cc1ccccc1-c1cc(C(=O)Nc2cccc3ccccc23)c2ccccc2n1	-11	1.49
CCCC(NC(=O)NC1CCN(C)C1=O)c1ccccn1 (stereo not given)	6	-0.84

SMILES	% Inhibition [%]	Z score
COc1cccc(CN2C[C@]34C=C[C@H](O3)C(C(=O)N3CCCCCC3)C4C2=O)c1 (stereo not given in full)	-9	1.02
O=C(O)CN1CCCCC(NC2CCOc3c(Br)cccc32)C1=O (stereo not given)	1	-0.09
Cc1nc(C(C)C)nc(C)c1OCc1nc(C2CC2)no1	-12	2.09
COC(=O)N1CCc2ccc(Br)cc2C1C(=O)NCC1CCCO1 (stereo not given)	-6	1.1
COCC1(CNCc2cc(Cl)cc(OC)c2OC)CCC1	-7	1.41
CO[C@@H](C)C(=O)N(CC(=O)N1CCCCC1)c1ccc(C)cc1	-12	1.51
O=C(NCCCNCc1cccnc1)c1cccc(F)c1Cl	-4	0.52
CCC=C(C)C(=O)N1CCCC[C@@H]1CN	-1	0.06
O=C(NC[C@H]1CCCN1c1nccs1)c1ccco1	-16	3.09
Cc1nc(O)nc(C)c1CCC(=O)NCc1oc2ccccc2c1C	-1	0.24
CC[C@H](C)[C@H](N)C(=O)OCc1ccccc1	1	-0.1
Cc1cnc(NC(=O)CCOCC(C)C)s1	-5	0.74
O=C(COc1cccc(Cl)c1)NC(C1CC1)C1CC1	4	-0.83
Cc1cc(C(=O)N(C)C2Cc3ccccc3C2)c(NC(=O)C(C)(C)C)s1	-3	0.38
CC[C@H]1CCCCN1S(=O)(=O)c1ccc2c(c1)CCC(=O)N2	-6	0.89
CC(C)C[C@@H]1CN(C(=O)CCC(=O)Nc2nncs2)CC[C@]1(C)O	-18	2.38
COc1ccccc1CN[C@H]1COCc2ccccc21	-1	0.18
N#CCN1CCC(CNC(=O)c2ccncc2F)CC1	-9	1.76
C=CCOc1ccccc1CN(CC)C(=O)Cc1c(C)[nH][nH]c1=O	15	-1.89
